Data as given in PubChem BioAssay AID1347071 (National Center for Advancing Translational Sciences (NCATS), 2019).
About 260 (0.063%) of roughly 410,000 compounds were called active. This list was built around the results that the source calls inconclusive (neither active nor inactive); the mix of calls is not that of the screen. The call rests on the fitted dose curve; in most records, active means well fitted activation curve with a large enough effect; inconclusive means small, poorly fitted or top-dose-only effect; inactive means no such curve, though single readings can be large or run the other way. No potency is given beside an inconclusive call; the fits are too rough.

assay: qHTS for compounds that reverse cellular toxicity of Amyloid beta (A-beta) peptide in yeast: Primary Screen; settings: yeast expressing A-beta42, growth rescue, OD600, 48 h; growth rescue: at 46.1 µM (top of the series), 0% DMSO, 100% iron-clioquinol control; further: nearly all actives have a fitted effect of over 55% in size
Summary of the method: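 Growth rescue measured by 600 nm absorbance after 48 h yeast culture at 30 C with compound. Values normalized between DMSO and an equimolar ferric chloride plus clioquinol control.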
Potency means the concentration at half of the fitted maximal effect; tags describe the fitted curve by direction and shape.

SMILES | Potency
O=C(Oc1ccc2ccccc2c1)C1CCC1 | inactive
CCNC(=O)C1(C)CCCN(C(=O)c2csc3ccccc23)C1 (stereo not given) | inconclusive [activator, single point]
CCOc1ccccc1N1CN(C2CCCCC2)CNC1=S | inconclusive [activator, partial curve, poor fit]
CCOc1ccc(/C(O)=C2/C(=O)C(=O)N(CC3CCCO3)C2c2cccs2)cc1 (stereo not given) | inconclusive [activator, partial curve, poor fit]
CC(C)(C)NC(=O)NC(=O)CN1CCN(S(=O)(=O)c2ccc3c(c2)CCCC3)CC1 | inconclusive [activator, partial curve, poor fit]
CCCCCCC1CC(CC(=O)Nc2ccc([N+](=O)[O-])cc2)C(=O)O1 (stereo not given) | inconclusive [activator, full curve]
CCSC1=NC2(CCCCC2)Nc2sc3c(c21)CCCC3 | inactive
CCCc1cc(-c2n[nH]c(=S)n2-c2cccc(C)c2)cs1 | inconclusive [activator, partial curve, poor fit]
Cc1c(N2C(=O)c3ccccc3C2(O)c2ccccc2)c(=O)n(-c2ccccc2)n1C (stereo not given) | inconclusive [activator, partial curve, poor fit]
S=C(NNc1cccc(Cl)c1)NC1CCCCC1 | inconclusive [activator, single point]
CC(C)Cc1cc(CNC(=O)C2CCC(=O)N(CCc3cccc(F)c3)C2)on1 (stereo not given) | inconclusive [activator, single point]
O=C(COC(=O)Cc1ccc(Cl)cc1)NC1CCCC1 | inactive
O=C1C(=Cc2cccc(Cl)c2)CCc2ccccc21 | inactive
CC(C)Oc1ccc(CCc2n[nH]c(=S)n2-c2ccccc2)cc1 | inconclusive [activator, single point]
Cc1noc(C)c1CSCC(=O)Nc1nc2ccc(F)cc2s1 | inconclusive [activator, partial curve, poor fit]
CCOCCCNC(=O)c1c(N)n(-c2ccc3c(c2)OCO3)c2nc3ccccc3nc12 | inactive
Cc1ccccc1Nc1c(-c2ccccn2)nc2c(C)cccn12 | active: 11.2 µM
CCc1c(O)nc(SCC(=O)Nc2ccc(Cl)cc2)n(-c2ccccc2)c1=O | inactive
O=C(CCl)Nc1cccc(-c2cnc3ccccc3n2)c1 | inactive
CC1(C)c2ccccc2-n2c1cc1oc(=O)cc(O)c1c2=O | inconclusive [activator, full curve, poor fit]
CCCNC(=O)c1cccc(Cn2nc(C)c(Br)c2C)c1 | inconclusive [activator, partial curve, poor fit]
CCN(CC(=O)Nc1ccccc1C(F)(F)F)C(=O)c1cc(-c2cccs2)nn1-c1ccccc1 | inconclusive [activator, full curve, poor fit]
CC(=O)NC(=S)NNC(=O)c1ccc(Br)cc1 | inconclusive [activator, partial curve, poor fit]
COc1ccc(-c2cc(C(=O)O)n(Cc3ccccc3)n2)cc1 | inactive

SMILES | Potency
COc1ccc(-c2cc(C(=O)Nc3nc4ccccc4s3)c3ccccc3n2)cc1OC | inconclusive [activator, single point]
CCOc1ccc(-c2nc(-c3ccc(OC)cc3)no2)cc1OCC | inactive
Cc1ccc(C)c(NC(=O)CN2C(=O)CCc3ccccc32)c1 | inactive
CCOc1ccc(C(=O)NCC(=O)N2CCCCCCC2)cc1 | inconclusive [activator, full curve]
CN(C)S(=O)(=O)c1cccc(NC(=S)NNC(=O)c2cc3ccccc3cc2O)c1 | inconclusive [activator, full curve, poor fit]
COc1ccccc1NC(=S)NC(C)C(c1cccs1)N1CCOCC1 (stereo not given) | inconclusive [activator, single point]
O=C(NCCc1c[nH]c2ccc(Cl)cc12)c1cccnc1 | inconclusive [activator, partial curve, poor fit]
O=S(Cc1ccc(Br)cc1)Cc1nnc(SCc2ccc(Br)cc2)n1-c1ccccc1 (stereo not given) | inconclusive [activator, full curve, poor fit]
O=C(COC(=O)C1CCC1)Nc1ccc(Oc2ccccc2)cc1 | inconclusive [activator, partial curve, poor fit]
CSc1ccc(/C=C/C(=O)c2ccc(O)cc2)cc1 | inconclusive [activator, single point]
CCOC(=O)c1ccccc1NC(=O)N(C(C)C)C1CCN(C(C)=O)CC1 | inactive
CCOC(=O)C1(Cc2ccccc2C)CCCN(C(=O)COC)C1 (stereo not given) | inconclusive [activator, single point]
COc1ccc(/C=C/C(=O)NC(=S)NNC(=O)c2ccco2)cc1 | active: 7.08 µM
Cc1nnc(SCCn2c(N3CCC(Cc4ccccc4)CC3)nc3c2c(=O)[nH]c(=O)n3C)s1 | inconclusive [activator, partial curve, poor fit]
CC(C)CC(N)c1csc(NC(=O)c2cc(C(C)(C)C)nn2Cc2ccccc2)n1 (stereo not given) | inconclusive [activator, partial curve, poor fit]
O=C(CSc1ccc([N+](=O)[O-])cn1)Nc1ccc(N2CCOCC2)c(Cl)c1 | active: 22.4 µM
CCOc1cc(/C=N/NC(=O)CN2CCCCC2)ccc1OCc1cccc(Cl)c1 | inactive
Cc1ccc(-n2nc3ccc(NC(=O)c4ccc5c(c4)OCO5)cc3n2)cc1 | inactive
CCC(Cc1ccccc1)n1c(=S)[nH]c2ccccc2c1=O (stereo not given) | inconclusive [activator, partial curve]
COC(=O)Nc1cccn(Cc2c(Cl)cccc2Cl)c1=O | inconclusive [activator, partial curve, poor fit]
Cc1n[nH]c(C)c1N1C(=O)c2cccc3cc(Br)cc(c23)C1=O | inactive
COc1ccc(C(=O)Nc2nc3c(s2)CCCC3)cc1Cl | inconclusive [activator, partial curve]
CCOC(=O)Cc1ccc(Nc2nc(NCc3ccccc3)nc3ccsc23)cc1 | inactive
Cn1nc(C(=O)N2CCN(c3ccc(F)cc3)CC2)c2c1-c1ccccc1S(=O)(=O)C2 | inactive

SMILES | Potency
COc1cc(OC)cc(C(=O)Nc2ccc3nc(Nc4cccc(C(F)(F)F)c4)cc(C)c3c2)c1 | inconclusive [activator, single point]
O=C(CSc1nccc(-c2cccs2)n1)Nc1ccc(F)c(Cl)c1 | inconclusive [activator, partial curve, poor fit]
O=C1CSc2ccc(C(=O)O)cc2N1 | inconclusive [activator, partial curve, poor fit]
CC(O)(c1ccccc1)c1nc(-c2cccc(C#N)c2)cs1 (stereo not given) | inconclusive [activator, partial curve, poor fit]
Cc1ccn2c(Nc3ccc4c(c3)OCCO4)c(-c3cccs3)nc2c1 | inactive
O=C(CSc1nnc(-c2ccc(Cl)cc2)o1)Nc1ccc(F)cc1 | inactive
CCNC(=O)c1ccccc1SCc1ccccc1 | inactive
COc1ccc(NCC(=O)N/N=C/c2c(C)nn(Cc3ccccc3)c2Cl)cc1 | inconclusive [activator, partial curve, poor fit]
CC(NC(=O)CCSc1nc(-c2ccc3c(c2)OCO3)cc(C(F)(F)F)n1)c1ccccc1 (stereo not given) | inactive
CCOC(=O)N1CCN(CC(O)COc2ccccc2C(C)C)CC1 (stereo not given) | inconclusive [activator, partial curve, poor fit]
NNC(=O)CNC(=O)c1cccc(Br)c1 | inconclusive [activator, partial curve, poor fit]
C/C(=N\Nc1ccc(C(=O)O)cc1)c1ccc2c(c1)Nc1ccccc1S2 | inconclusive [activator, partial curve, poor fit]
CC1CCCCC1NC(=O)COn1nnc2ccc(Cl)cc21 (stereo not given) | inactive
COc1ccc(-c2cc(-c3cc(C)ccc3O)[nH]n2)cc1 | inconclusive [activator, single point]
O=C(/C=C/c1ccccc1Cl)Nc1ccc2c(c1)C(=O)NC2=O | inactive
O=C(NNc1nc2ccc(Cl)cc2s1)c1cc(-c2cccs2)nc2ccccc12 | inconclusive [activator, single point]
CCc1ccc2c(c1)c(=O)c(S(=O)(=O)c1ccc(F)cc1)cn2CC(=O)Nc1ccc(C)cc1C | inactive
CCCOc1ccc(N2C(=O)C3ON(c4ccccc4)C(CCC)C3C2=O)cc1 (stereo not given) | inconclusive [activator, partial curve, poor fit]
O=c1ccc(NS(=O)(=O)c2ccc(Cl)cc2)cn1Cc1ccc(Cl)c(Cl)c1 | inconclusive [activator, full curve]
CCOc1ccc(NC(=S)N2CCC(c3ccc(C)cc3)C2)cc1 (stereo not given) | inconclusive [activator, partial curve, poor fit]
COCCCNC(=O)c1oc2c(c1C)-c1nn(Cc3cccc(Cl)c3)cc1CC2 | inactive
CC1C/C(=N\NC(=S)NCc2ccccc2)CC(C)(C)C1 (stereo not given) | inconclusive [activator, single point]
